The source of these data is publication PMC6919601, “Identification of Plasmodium dipeptidyl aminopeptidase allosteric inhibitors by high throughput screening” (PLoS ONE, 2019).

Molecules are shown by their SMILES. The whole screen tested about 110,000 compounds, of which about 230 (0.21%) showed an effect of 50% or more. Some of the results follow.
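Note: 30 min substrate incubation versus DMSO and 10 µM JCP410 controls.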

For this test, the target named is DPAP1 (Plasmodium falciparum, UniProt Q8IIJ9). The test is described as follows: primary screen, percent inhibition; read by cleavage of a fluorogenic dipeptide substrate; higher = more effect of the substance. Also on record: species or system P. falciparum D10 trophozoite lysates; single well.
DPAP1, sequence (Q8IIJ9 whole entry, looked up): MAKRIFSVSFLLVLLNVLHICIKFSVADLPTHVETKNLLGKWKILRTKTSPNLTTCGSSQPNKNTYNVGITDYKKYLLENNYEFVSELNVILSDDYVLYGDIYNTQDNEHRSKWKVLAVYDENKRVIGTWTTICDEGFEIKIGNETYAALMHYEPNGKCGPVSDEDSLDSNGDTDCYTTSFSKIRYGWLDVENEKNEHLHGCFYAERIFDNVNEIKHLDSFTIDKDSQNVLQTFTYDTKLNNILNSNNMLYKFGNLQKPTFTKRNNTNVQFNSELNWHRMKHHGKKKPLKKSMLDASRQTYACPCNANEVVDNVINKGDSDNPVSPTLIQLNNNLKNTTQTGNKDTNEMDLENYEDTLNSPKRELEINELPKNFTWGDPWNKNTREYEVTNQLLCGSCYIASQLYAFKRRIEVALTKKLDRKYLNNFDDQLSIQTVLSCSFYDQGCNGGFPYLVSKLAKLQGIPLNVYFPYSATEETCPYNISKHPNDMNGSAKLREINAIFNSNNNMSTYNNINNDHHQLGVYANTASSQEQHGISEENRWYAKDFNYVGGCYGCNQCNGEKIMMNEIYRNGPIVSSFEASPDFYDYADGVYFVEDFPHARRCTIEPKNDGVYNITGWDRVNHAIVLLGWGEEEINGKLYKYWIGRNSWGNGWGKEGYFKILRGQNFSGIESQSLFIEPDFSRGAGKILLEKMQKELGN
For `CCOCCCNC(=O)C(c1ccc(C)cc1)N(Cc1ccc2c(c1)OCO2)C(=O)c1cnccn1` (stereo not drawn), the “% Inhibition @ 10 uM” value was determined as 2.74%.

Take `CCC(C)NC(=O)C1CCN(c2nnc(C)c3c(C)n(-c4ccc(Cl)cc4)nc23)CC1` (stereo not drawn): the “% Inhibition @ 10 uM” value is recorded as -2.14%.

With `CC(=O)Nc1ccc(NC(=O)c2cc(C)n(C)n2)cc1`, the “% Inhibition @ 10 uM” value was -2.66%.

As for `CC1CN(C2=NC(=O)/C(=C\c3ccccc3)S2)CC(C)O1` (stereo not drawn), the “% Inhibition @ 10 uM” value is on record as -7.98%.

On to `Cc1nn(CCC(=O)NCCC(C)C)c(=O)c2nn(-c3ccccc3)c(C)c12`, for which the “% Inhibition @ 10 uM” value is -4.96%.

As to `COc1ccc2c(CNCc3ccc4c(c3)OCO4)c(C(=O)O)n(Cc3ccccc3C)c2c1`, the “% Inhibition @ 10 uM” value stood at 3.61%.

For the compound `CC(C)C(=O)Nc1ccc(C(=O)NC(c2ccccc2)c2ccccc2)cc1`, the “% Inhibition @ 10 uM” value is reported as -2.19%.

In the case of `COc1cc(C2=NOC(C(=O)Nc3cc(C)on3)C2)cc(OC)c1OC` (stereo not drawn), the “% Inhibition @ 10 uM” value is on record as -0.431%.

As to `Cc1ccc(NC(=O)c2cccnc2C(=O)O)nc1`, the “% Inhibition @ 10 uM” value is 3.96%.

As for `O=C(c1cccc(F)c1)N1CCCC(C(=O)N2CCCCCC2)C1` (stereo not drawn), the “% Inhibition @ 10 uM” value is -1.17%.

In the case of `CCOCc1ccc(O)c2ncccc12`, the “% Inhibition @ 10 uM” value was determined as 1.19%.

For `CCN(CC)c1nc(Cl)nc(N(CC)CC)n1`, the “% Inhibition @ 10 uM” value is -0.216%.

For `Cc1cc(NS(=O)(=O)c2ccc(NC(=O)c3ccc(-c4ccccc4)cc3)cc2)no1`, the “% Inhibition @ 10 uM” value came out at 4.11%.

In the case of `CCCC[C@H](NC(=O)[C@@H](NC(=O)c1ccc(CN)cc1)[C@H](C)CC)C(=O)CO`, the “% Inhibition @ 10 uM” value is given as -5.64%.

For `COc1ccc(N2CCN(C(=O)c3sccc3C)CC2)cc1`, the “% Inhibition @ 10 uM” value is -3.78%.

Regarding `CC1CN(C(=O)C2C3CCC(O3)C2C(=O)O)CC(C)O1` (stereo not drawn), the “% Inhibition @ 10 uM” value was -5.07%.

For `c1ccc2nc(-c3nc4ccccc4o3)ccc2c1`, the “% Inhibition @ 10 uM” value worked out at 1.35%.

`CCOC(=O)C1=CN(C(C)C)C=C(C(=O)OCC)C1c1ccccc1OCC`: the “% Inhibition @ 10 uM” value was 3.45%.

`COc1ccc(/C(O)=C/C2=NCCNC2=O)cc1OC`: the “% Inhibition @ 10 uM” value is -6.78%.

As to `CCn1c(C)c(C)c2cc(C(=O)NCCN3CCN(C)CC3)ccc21`, the “% Inhibition @ 10 uM” value is listed as -7.04%.

For the compound `CC1(C)Cc2ccccc2C2=C(c3ccc4ccccc4n3)C(O)(C(F)(F)F)C(=O)N21` (stereo not drawn), the “% Inhibition @ 10 uM” value is -2.63%.

As for `O=C(CN1CCN(CC(=O)c2ccccc2)CC1)c1ccccc1`, the “% Inhibition @ 10 uM” value was determined as 2.38%.

In the case of `O=C(Cn1ncn2c(cc3cc(F)ccc32)c1=O)NCc1ccco1`, the “% Inhibition @ 10 uM” value worked out at 1.68%.

Regarding `Cc1ccccc1-c1nnc(CC23CC4CC(CC(C4)C2)C3)o1`, the “% Inhibition @ 10 uM” value worked out at 1.22%.

In the case of `O=C1OC(c2ccco2)=N/C1=C\c1ccc(OCc2ccccc2)cc1`, the “% Inhibition @ 10 uM” value is listed as -0.48%.

As for `O=C1N(Cc2ccccc2)CCCC12CCCN(Cc1ccccc1)C2=O`, the “% Inhibition @ 10 uM” value is given as 2.8%.

For the compound `COc1ccc(C(=O)N/C(=C\c2ccco2)C(=O)NC2CCS(=O)(=O)C2)cc1` (stereo not drawn), the “% Inhibition @ 10 uM” value is given as -0.178%.
